The other results are listed elsewhere or left out. At the low end of the ranking, values are background and their order means little.

For the experiment, the target named is SIX1 homeodomain (reference allele) (UniProt Q15475). Nature of the experiment: universal protein binding microarray. Particulars: Universal all-10-mer PBM (8x60K, AMADID 030236), 300 nM GST-tagged protein, Alexa Fluor 488 anti-GST; buffer, salt, pH and temperature not stated; high values mean tight binding; most listed sequences are background and not binding sites; double strand, one strand shown.
For the sequence GGTATTCA, the binding signal is 0.3 E-score.
ATGCCCCG: the binding signal worked out at 0.0404 E-score.
In the case of CCTAGAGA, the binding signal turned out to be 0.071 E-score.
Regarding AGGTACAG, the binding signal was -0.24 E-score.
As for CATCAGCC, the binding signal was -0.0792 E-score.
Then AGACCTAC, with -0.0447 E-score.
Take CCTCTAGC: the binding signal was -0.191 E-score.
As for CACTTACA, the binding signal is -0.00562 E-score.
AAGATGCG: the binding signal was -0.0575 E-score.
As for AATTTTTG, the binding signal was -0.252 E-score.
Take GCCATGCA: the binding signal is -0.0515 E-score.
Then ACTCCAGT, with -0.0049 E-score.
Then AATGGGTG, with 0.0784 E-score.
Turning to TCTGGCAA, the binding signal was -0.0452 E-score.
For ACATCGAG, the binding signal is -0.193 E-score.
Consider ATAGTTAA, for which the binding signal was -0.00717 E-score.
Under ACTGAATA stands 0.0353 E-score; under ACAAGCAA, -0.179 E-score.
Take CATGATGA: the binding signal is 0.121 E-score.
As for GCGAGCTA, the binding signal was -0.0331 E-score.
Consider AAGGAAAC, for which the binding signal is -0.17 E-score.
As to ACTAGATC, the binding signal was 0.181 E-score.
As to AAGTTAGG, the binding signal was -0.119 E-score.
Take TAGATGGA: the binding signal is 0.289 E-score.
Under TAGTGCAA stands -0.0179 E-score; under CACGGAGC, -0.133 E-score; under CTAGGAAA, -0.227 E-score.
Under CAGCCCTC stands -0.175 E-score; under ACCTGCGG, 0.0263 E-score.
Turning to AGTATCGG, the binding signal stood at 0.429 E-score.
As for GACCGATA, the binding signal stood at 0.352 E-score.
Take GAGTGGAA: the binding signal was -0.122 E-score.
Turning to AGCCATGA, the binding signal was determined as 0.0263 E-score.
As for GAAACCGA, the binding signal was 0.117 E-score.
As to TATATTGA, the binding signal stood at 0.258 E-score.
As to CCCATTTC, the binding signal was -0.0945 E-score.
As for GAGGCTAC, the binding signal was -0.125 E-score.
Take GTGGACAC: the binding signal was found to be 0.182 E-score.
With AGTCTGAG, the binding signal was -0.101 E-score.
Turning to GACAGTAA, the binding signal was -0.0249 E-score.
For AGCCGTTA, the binding signal is -0.0413 E-score.
Regarding AGTAACAA, the binding signal is -0.261 E-score.
Turning to CGGCCTGA, the binding signal is -0.101 E-score.
Take TAACATTA: the binding signal was -0.111 E-score.
Turning to CAAGAGGG, the binding signal came out at 0.0235 E-score.
For CGGGGAGC, the binding signal was determined as 0.0329 E-score.
Under AGGCCCAC stands -0.317 E-score; under ACTGCACG, 0.0216 E-score.
For the sequence TACTTATA, the binding signal amounted to 0.0256 E-score.
Then ACTCTAAC, with -0.0518 E-score.
Regarding TAATTCGA, the binding signal was -0.223 E-score.
On to AGCGAGTG, for which the binding signal was determined as 0.027 E-score.
In the case of AAGTTCTC, the binding signal is -0.146 E-score.
For CGCTAGGC, the binding signal was -0.274 E-score.
On to GACTCTGC, for which the binding signal is -0.165 E-score.
On to GCCAGTAA, for which the binding signal is 0.0101 E-score.
For the sequence GTTAGTAA, the binding signal amounted to 0.0123 E-score.
On to ATCCACGA, for which the binding signal stood at 0.154 E-score.
Then CCAAGTGA, with -0.096 E-score; and CAGTGATA, with 0.417 E-score; and GAGTAAAA, with 0.0918 E-score.
As for GACCAGTA, the binding signal was 0.00707 E-score.
On to TCACCGGA, for which the binding signal amounted to 0.139 E-score.
Consider ACCAAATG, for which the binding signal is -0.0273 E-score.
With AGAATCGG, the binding signal was -0.00999 E-score.
In the case of CTAGGACA, the binding signal was -0.00357 E-score.
Take ACAGAAGT: the binding signal was -0.163 E-score.
Under AGGGATAT stands 0.45 E-score; under CCGAACTA, -0.13 E-score.
Regarding ACCCTGAT, the binding signal was determined as 0.3 E-score.
With CTGTATTC, the binding signal is -0.0422 E-score.
Take GTTCTAAA: the binding signal was -0.03 E-score.
GCACTAGA: the binding signal is -0.162 E-score.
As to ATGCAGAA, the binding signal was -0.126 E-score.
In the case of CCACGACA, the binding signal is 0.0282 E-score.
Then CATTAAAC, with -0.0375 E-score.
In the case of CTGGCCAA, the binding signal was -0.186 E-score.
As for ACCTACCG, the binding signal is -0.145 E-score.
As to ATTAGCTG, the binding signal was -0.15 E-score.
In the case of AAAACGAT, the binding signal came out at 0.122 E-score.
For CGTCTCGA, the binding signal was 0.285 E-score.
Consider TAAATGGA, for which the binding signal came out at 0.104 E-score.
For AGGCCGGA, the binding signal was -0.0326 E-score.
For ACGGATAC, the binding signal is 0.454 E-score.
For the sequence GCATGCAA, the binding signal stood at 0.113 E-score.
Regarding GGCGTAAA, the binding signal was -0.223 E-score.
In the case of ATACAGCC, the binding signal was 0.225 E-score.
Turning to GAAGTAAC, the binding signal was -0.171 E-score.
For CCGACAAA, the binding signal is -0.209 E-score.
On to AGGGTCAG, for which the binding signal is -0.0947 E-score.
As for GAAGCCAC, the binding signal is -0.119 E-score.
On to AAACGGTT, for which the binding signal was -0.154 E-score.
Regarding GTATGCGA, the binding signal was determined as 0.225 E-score.
As for CAGTAGCC, the binding signal is -0.263 E-score.
Regarding CTACGACA, the binding signal worked out at 0.0973 E-score.
For GGGGAAAC, the binding signal was -0.0202 E-score.
Consider GCGCCCAA, for which the binding signal was -0.154 E-score.
With CCTGGTTC, the binding signal is -0.0644 E-score.
For the sequence ACCACGTC, the binding signal is 0.0137 E-score.
For CGTCAGGC, the binding signal is -0.243 E-score.
ACTTCTGG: the binding signal was -0.113 E-score.
On to CAACGCTC, for which the binding signal is -0.172 E-score.
For the sequence ATTTTGAG, the binding signal was -0.0176 E-score.
On to GAAAACCC, for which the binding signal was -0.098 E-score.
For the sequence ACCTAACC, the binding signal is -0.00816 E-score.
Take CTTTTGTA: the binding signal was -0.116 E-score.
CAGAATAC: the binding signal came out at 0.221 E-score.
Then CAAAGTGG, with -0.0695 E-score; and TCACCCGA, with 0.157 E-score; and CTCGAAAA, with -0.2 E-score.
Then ACAATAGG, with -0.183 E-score; and GACAGCAC, with -0.123 E-score.
For the sequence CTGGGTTC, the binding signal came out at 0.0748 E-score.
Under CCCGACCC stands 0.122 E-score; under CTGCTGGC, -0.183 E-score; under GAGCGCAA, -0.268 E-score.
Under GTTATAGA stands 0.0174 E-score; under CTAAATCA, -0.0877 E-score.
Regarding AGACAGTG, the binding signal was -0.0473 E-score.
Take ACCGCCCC: the binding signal stood at 0.216 E-score.
GAACGTGA: the binding signal was -0.149 E-score.
As to ATCAAATC, the binding signal was 0.237 E-score.
Turning to GCCATGCC, the binding signal is -0.182 E-score.
With GCCGGACC, the binding signal was -0.133 E-score.
Turning to AGGCAGAG, the binding signal was -0.197 E-score.
ACATCAAC: the binding signal was -0.0474 E-score.
On to AACAGGAT, for which the binding signal is 0.179 E-score.
With ATACAGGA, the binding signal is 0.228 E-score.
On to CGGCCTTC, for which the binding signal was -0.246 E-score.
Regarding TATCACCA, the binding signal came to 0.42 E-score.
Turning to ACTGTGGG, the binding signal is -0.0264 E-score.
Then CAAAGTCA, with -0.354 E-score; and AATGAACC, with -0.0828 E-score; and GTCTTTTA, with -0.137 E-score.
CACCCGCG: the binding signal is 0.125 E-score.
Consider TCTAAAAA, for which the binding signal is -0.181 E-score.
In the case of AGGAAACG, the binding signal was -0.14 E-score.
With ATTATGAG, the binding signal turned out to be 0.19 E-score.
For the sequence GATCTGCC, the binding signal worked out at 0.334 E-score.
Then ACAAGGCT, with -0.256 E-score.
In the case of CCGTGACC, the binding signal worked out at 0.0385 E-score.
In the case of GTTTTTGA, the binding signal came out at 0.0525 E-score.
On to AATCGGGC, for which the binding signal was -0.0215 E-score.
For the sequence ACATGCCT, the binding signal was -0.106 E-score.
Under CCCATCGC stands 0.085 E-score; under AAGTCCGA, -0.0759 E-score; under AGTGGGTG, 0.184 E-score.
Take TTGTGAAA: the binding signal is -0.148 E-score.
On to CGGAGGCA, for which the binding signal was -0.0607 E-score.
Turning to TGCAAACA, the binding signal was -0.203 E-score.
For AAATCTAG, the binding signal is -0.0948 E-score.
Under ATCCCATG stands 0.311 E-score; under ACTTCGAT, 0.0937 E-score.
For AAACGTGG, the binding signal was -0.224 E-score.
Take TAGGCAGA: the binding signal was determined as 0.000455 E-score.
Under TACAAAAA stands -0.144 E-score.
Consider CCGATCTC, for which the binding signal turned out to be 0.316 E-score.
Regarding ACTCCATA, the binding signal amounted to 0.0147 E-score.
In the case of TTCGACAA, the binding signal was -0.11 E-score.
Then AGGAAGGC, with -0.147 E-score; and AGGATACT, with 0.364 E-score.
Turning to ATGACGCC, the binding signal is 0.0684 E-score.
Consider ACACGACC, for which the binding signal is -0.103 E-score.
In the case of CCTCGGCG, the binding signal was 0.0609 E-score.
In the case of ATTACTTC, the binding signal is -0.0625 E-score.
With AATCCCGC, the binding signal stood at 0.073 E-score.
Then ACCCCACC, with 0.275 E-score; and AATAAGCG, with -0.185 E-score; and AGCTGGAA, with 0.00532 E-score.
Consider TTCTCAAA, for which the binding signal stood at 0.122 E-score.
Take ACCACTTC: the binding signal was -0.0577 E-score.
Then CACTAAAC, with 0.0181 E-score.

The values are drawn from article PMC10668032.
